Test results published in publication PMC7904734, “ORP/Osh mediate cross-talk between ER-plasma membrane contact site components and plasma membrane SNAREs” (Cellular and Molecular Life Sciences: CMLS, 2020).
Results are given in words; binding and its absence hold for the method and conditions named. For some of these results: In cells and extracts the contact can be indirect. Some binding calls cover weakened binding; strength is not graded here. For some of these results: Sequences can lack the tags named with a protein.

Sequences of proteins named here, by UniProt entry; tags and fusion partners are left off.
UniProt P60880: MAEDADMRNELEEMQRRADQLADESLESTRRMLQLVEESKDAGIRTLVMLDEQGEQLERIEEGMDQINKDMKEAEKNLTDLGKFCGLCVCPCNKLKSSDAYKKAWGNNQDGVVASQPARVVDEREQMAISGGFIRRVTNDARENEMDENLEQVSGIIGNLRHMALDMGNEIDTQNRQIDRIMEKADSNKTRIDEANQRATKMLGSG
UniProt P40357: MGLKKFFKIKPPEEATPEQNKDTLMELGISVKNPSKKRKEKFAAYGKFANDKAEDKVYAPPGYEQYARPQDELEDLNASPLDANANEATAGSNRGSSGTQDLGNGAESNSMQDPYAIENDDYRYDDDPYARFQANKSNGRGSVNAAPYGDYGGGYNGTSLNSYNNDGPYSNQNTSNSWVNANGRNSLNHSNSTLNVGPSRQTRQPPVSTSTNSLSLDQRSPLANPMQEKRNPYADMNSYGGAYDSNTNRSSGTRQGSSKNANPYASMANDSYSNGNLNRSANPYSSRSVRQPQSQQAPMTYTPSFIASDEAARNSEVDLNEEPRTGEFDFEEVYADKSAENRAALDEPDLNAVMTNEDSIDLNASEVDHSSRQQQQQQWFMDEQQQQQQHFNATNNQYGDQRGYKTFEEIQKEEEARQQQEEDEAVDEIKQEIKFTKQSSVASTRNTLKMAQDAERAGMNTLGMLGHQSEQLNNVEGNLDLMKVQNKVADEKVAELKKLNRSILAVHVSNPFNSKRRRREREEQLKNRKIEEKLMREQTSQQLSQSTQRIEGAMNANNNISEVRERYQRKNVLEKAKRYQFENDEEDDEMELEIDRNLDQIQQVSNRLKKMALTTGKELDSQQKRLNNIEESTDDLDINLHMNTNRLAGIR
UniProt Q9H1P3: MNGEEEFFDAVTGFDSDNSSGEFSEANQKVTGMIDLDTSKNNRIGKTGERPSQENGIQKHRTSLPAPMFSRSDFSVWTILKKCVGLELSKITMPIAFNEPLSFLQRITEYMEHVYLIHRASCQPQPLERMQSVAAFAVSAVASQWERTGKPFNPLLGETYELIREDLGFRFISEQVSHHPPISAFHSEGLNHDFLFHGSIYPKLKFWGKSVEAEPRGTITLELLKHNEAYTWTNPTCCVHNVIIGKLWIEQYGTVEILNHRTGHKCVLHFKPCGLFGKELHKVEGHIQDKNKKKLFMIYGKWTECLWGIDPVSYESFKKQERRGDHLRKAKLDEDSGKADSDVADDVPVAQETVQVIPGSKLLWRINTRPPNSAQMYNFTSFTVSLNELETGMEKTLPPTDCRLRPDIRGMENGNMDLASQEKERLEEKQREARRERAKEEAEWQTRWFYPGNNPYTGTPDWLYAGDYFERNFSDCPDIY
UniProt P35843: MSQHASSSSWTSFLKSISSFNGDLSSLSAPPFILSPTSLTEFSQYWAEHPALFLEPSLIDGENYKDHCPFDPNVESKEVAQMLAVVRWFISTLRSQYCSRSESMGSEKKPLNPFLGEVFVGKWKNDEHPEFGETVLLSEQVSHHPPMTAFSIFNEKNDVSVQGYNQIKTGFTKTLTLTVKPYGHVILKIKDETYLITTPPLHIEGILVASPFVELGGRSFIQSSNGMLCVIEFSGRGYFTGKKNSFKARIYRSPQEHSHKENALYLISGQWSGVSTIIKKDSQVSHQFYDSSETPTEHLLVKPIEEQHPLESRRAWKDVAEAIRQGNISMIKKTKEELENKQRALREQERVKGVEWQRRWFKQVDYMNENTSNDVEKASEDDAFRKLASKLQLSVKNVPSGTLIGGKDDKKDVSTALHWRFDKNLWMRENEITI

Experiments:
[1] = target: T1, YFP(N)·HA·Osh3p (S. cerevisiae) (UniProt P38713); test: co-IP; anti-HA immunoprecipitation from lysates of yeast cells expressing YFP(N)·HA·Osh3p or YFP(N)·HA·Osh1p; Western blot; wt and SNARE mutant strains
T1 sequence: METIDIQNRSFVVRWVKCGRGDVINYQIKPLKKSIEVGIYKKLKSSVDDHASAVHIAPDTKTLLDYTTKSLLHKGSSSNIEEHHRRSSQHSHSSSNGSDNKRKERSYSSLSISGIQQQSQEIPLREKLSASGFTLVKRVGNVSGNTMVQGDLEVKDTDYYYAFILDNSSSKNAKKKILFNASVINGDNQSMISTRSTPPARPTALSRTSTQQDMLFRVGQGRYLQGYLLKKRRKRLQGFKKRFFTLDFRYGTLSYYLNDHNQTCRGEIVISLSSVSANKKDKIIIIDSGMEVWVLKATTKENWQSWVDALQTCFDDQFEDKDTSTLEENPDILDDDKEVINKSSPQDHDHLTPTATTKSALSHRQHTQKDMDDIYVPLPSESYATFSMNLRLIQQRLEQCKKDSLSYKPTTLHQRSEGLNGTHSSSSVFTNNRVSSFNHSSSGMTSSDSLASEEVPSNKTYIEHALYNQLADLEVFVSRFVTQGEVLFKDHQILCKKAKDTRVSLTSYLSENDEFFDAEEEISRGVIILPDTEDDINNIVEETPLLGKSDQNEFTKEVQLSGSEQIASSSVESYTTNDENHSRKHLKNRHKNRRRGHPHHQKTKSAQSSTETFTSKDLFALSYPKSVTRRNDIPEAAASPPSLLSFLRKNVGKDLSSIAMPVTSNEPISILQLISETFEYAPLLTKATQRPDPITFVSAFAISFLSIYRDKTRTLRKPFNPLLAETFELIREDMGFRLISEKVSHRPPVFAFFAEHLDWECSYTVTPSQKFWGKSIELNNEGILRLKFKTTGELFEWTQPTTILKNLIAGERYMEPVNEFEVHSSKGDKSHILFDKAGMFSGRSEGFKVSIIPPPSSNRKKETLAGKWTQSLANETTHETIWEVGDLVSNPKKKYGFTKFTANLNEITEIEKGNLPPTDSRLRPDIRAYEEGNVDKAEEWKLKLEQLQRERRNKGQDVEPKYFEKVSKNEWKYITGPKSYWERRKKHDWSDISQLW

GST·SNAP-25 = GST·SNAP-25 (UniProt P60880); test: pull-down; 1 μM GST·SNAP-25 or GST with equimolar pFOLD·ORP2 and Glutathione-Agarose, 100 μl PBS, 1 h, room temperature; SDS-PAGE, Coomassie; both purified
[2] = target: YFP(C)·Sec9p (S. cerevisiae) (UniProt P40357); test: split reporter; BiFC of YFP(N) and YFP(C) fusions in living wild type yeast cells grown at 24 °C, fluorescence microscopy; also in exocytosis mutants other than sec9-4 and with OSH3 overexpression (signals enhanced)
[3] = target: T2, YFP(C)·Scs2p (S. cerevisiae) (UniProt P40075); test: split reporter; BiFC in living sec9-4 mutant yeast cells (Y6) at the permissive temperature; Osh proteins are degraded in this strain; YFP(C)·Sec9-4p used in place of YFP(C)·Sec9p
T2 sequence: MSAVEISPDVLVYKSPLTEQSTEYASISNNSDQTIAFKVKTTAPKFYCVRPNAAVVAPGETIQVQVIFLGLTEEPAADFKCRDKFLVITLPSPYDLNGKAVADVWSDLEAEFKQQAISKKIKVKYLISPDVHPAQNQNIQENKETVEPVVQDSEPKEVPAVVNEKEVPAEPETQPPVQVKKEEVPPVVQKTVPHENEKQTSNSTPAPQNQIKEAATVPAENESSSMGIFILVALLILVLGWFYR

[4] = target: T2, YFP(C)·Scs2p (S. cerevisiae); test: split reporter; BiFC in living sec9-4 Δpep4 yeast cells (Y39) at the permissive temperature; Osh3p level restored
[5] = target: T2, YFP(C)·Scs2p (S. cerevisiae); test: split reporter; BiFC in living Δosh1-3 yeast cells (Y36), compared with wt (Y2)
[6] = target: T2, YFP(C)·Scs2p (S. cerevisiae); test: split reporter; BiFC of YFP(N) and YFP(C) fusions in living wild type yeast cells grown at 24 °C, fluorescence microscopy; also in exocytosis mutants other than sec9-4 and with OSH3 overexpression (signals enhanced)
[7] = target: T3, Venus(C)·VAPA (HEK293 plasmid) (human), Q9P0L0; test: split reporter; BiFC of Venus(N) and Venus(C) fusions in transfected HEK293 cells, fixed after 24 h; co-transfection marker mCherry or mCherry·ORP; settings: remark: other sources report otherwise
T3 chain: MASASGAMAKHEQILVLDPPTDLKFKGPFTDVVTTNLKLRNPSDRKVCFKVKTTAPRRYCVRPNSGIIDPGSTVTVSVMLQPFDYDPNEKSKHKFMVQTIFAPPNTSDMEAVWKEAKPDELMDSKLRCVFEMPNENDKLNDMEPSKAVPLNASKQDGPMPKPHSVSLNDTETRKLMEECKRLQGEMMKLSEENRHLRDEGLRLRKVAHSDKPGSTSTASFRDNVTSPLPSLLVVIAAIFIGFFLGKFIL

[8] = target: T4, Venus(C)·VAPA (lentiviral) (human), Q9P0L0; test: split reporter; BiFC of Venus(N)·VAPA and Venus(C)·VAPA in wt mouse hippocampal neurons, lentiviral; scrambled or ORP2 shRNA; infected DIV 3 and fixed DIV 7, or infected DIV 7 and fixed DIV 14; settings: remark: other sources report otherwise
T4 chain: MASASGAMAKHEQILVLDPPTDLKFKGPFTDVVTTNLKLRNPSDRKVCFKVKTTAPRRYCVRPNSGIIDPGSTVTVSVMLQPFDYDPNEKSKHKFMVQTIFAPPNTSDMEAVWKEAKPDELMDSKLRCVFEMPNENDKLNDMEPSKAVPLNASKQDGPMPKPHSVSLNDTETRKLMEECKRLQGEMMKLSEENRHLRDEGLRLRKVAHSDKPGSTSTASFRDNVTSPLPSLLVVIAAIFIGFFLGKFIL

FLAG·VAPA = target: T5, FLAG·VAPA (UniProt Q9P0L0); test: co-IP; anti-FLAG M2 magnetic beads, lysates of mouse hippocampal neurons expressing FLAG·VAPA, scrambled shRNA control, DIV 7 and DIV 14; 50 mM Tris HCl pH 7.9, 150 mM NaCl, 1% NP-40; Western blot; ORP2 knock-down at DIV 14 largely without effect
T5 sequence: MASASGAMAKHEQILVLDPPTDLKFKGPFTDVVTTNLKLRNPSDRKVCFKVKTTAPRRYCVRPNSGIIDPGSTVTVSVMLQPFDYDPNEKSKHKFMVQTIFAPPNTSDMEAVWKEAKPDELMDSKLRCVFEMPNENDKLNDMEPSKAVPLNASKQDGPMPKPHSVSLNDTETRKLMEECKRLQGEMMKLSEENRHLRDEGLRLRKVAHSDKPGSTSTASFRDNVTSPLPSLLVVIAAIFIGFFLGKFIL

Molecule: Sec9p (endogenous) (from UniProt P40357 1-651)
- binding [1]: binds

Molecule: His6·pFOLD·ORP2 (from UniProt Q9H1P3 1-480)
- binding (GST·SNAP-25): binds

Molecule: YFP(N)·Osh5p (from UniProt P35843 1-434)
- binding [2]: binds

B1: YFP(N)·Scs2p (protein, UniProt P40075 1-244)
chain: MSAVEISPDVLVYKSPLTEQSTEYASISNNSDQTIAFKVKTTAPKFYCVRPNAAVVAPGETIQVQVIFLGLTEEPAADFKCRDKFLVITLPSPYDLNGKAVADVWSDLEAEFKQQAISKKIKVKYLISPDVHPAQNQNIQENKETVEPVVQDSEPKEVPAVVNEKEVPAEPETQPPVQVKKEEVPPVVQKTVPHENEKQTSNSTPAPQNQIKEAATVPAENESSSMGIFILVALLILVLGWFYR
- binding [3]: no binding (condition: in the sec9-4 mutant strain)
- binding [4]: binds
- binding [5]: binds weakly
- binding [6]: binds

B2: Venus(N)·VAPA (HEK293 plasmid), Q9P0L0 1-249 (protein)
chain: MASASGAMAKHEQILVLDPPTDLKFKGPFTDVVTTNLKLRNPSDRKVCFKVKTTAPRRYCVRPNSGIIDPGSTVTVSVMLQPFDYDPNEKSKHKFMVQTIFAPPNTSDMEAVWKEAKPDELMDSKLRCVFEMPNENDKLNDMEPSKAVPLNASKQDGPMPKPHSVSLNDTETRKLMEECKRLQGEMMKLSEENRHLRDEGLRLRKVAHSDKPGSTSTASFRDNVTSPLPSLLVVIAAIFIGFFLGKFIL
- binding [7]: binds

B3: Venus(N)·VAPA (lentiviral), Q9P0L0 1-249 (natural protein)
chain: MASASGAMAKHEQILVLDPPTDLKFKGPFTDVVTTNLKLRNPSDRKVCFKVKTTAPRRYCVRPNSGIIDPGSTVTVSVMLQPFDYDPNEKSKHKFMVQTIFAPPNTSDMEAVWKEAKPDELMDSKLRCVFEMPNENDKLNDMEPSKAVPLNASKQDGPMPKPHSVSLNDTETRKLMEECKRLQGEMMKLSEENRHLRDEGLRLRKVAHSDKPGSTSTASFRDNVTSPLPSLLVVIAAIFIGFFLGKFIL
- binding [8]: binds

B4: VAPA (endogenous, mouse neurons) (protein, UniProt Q9WV55 1-249)
chain: MASASGAMAKHEQILVLDPPSDLKFKGPFTDVVTTNLKLQNPSDRKVCFKVKTTAPRRYCVRPNSGIIDPGSIVTVSVMLQPFDYDPNEKSKHKFMVQTIFAPPNISDMEAVWKEAKPDELMDSKLRCVFEMPNENDKLNDMEPSKAVPLNASKQDGPLPKPHSVSLNDTETRKLMEECKRLQGEMMKLSEENRHLRDEGLRLRKVAHSDKPGSTSAVSFRDNVTSPLPSLLVVIAAIFIGFFLGKFIL
- binding (FLAG·VAPA): binds
